Laboratory results from PMC4336329 (PLoS ONE, 2015).
The campaign covered roughly 310,000 compounds. About 14,000 (4.5%) showed an effect of 50% or more. The effect is printed as a negative number. Some of the results follow.

What follows are molecules tested against human ether-à-go-go-related gene (hERG) potassium channel (human, UniProt Q12809) (assay: primary screen, population patch clamp on CHO cells stably expressing hERG).
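Further: peak tail current of the secondary pulse compared with the same well before compound.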

Chain of human ether-à-go-go-related gene (hERG) potassium channel (Q12809 whole entry, looked up): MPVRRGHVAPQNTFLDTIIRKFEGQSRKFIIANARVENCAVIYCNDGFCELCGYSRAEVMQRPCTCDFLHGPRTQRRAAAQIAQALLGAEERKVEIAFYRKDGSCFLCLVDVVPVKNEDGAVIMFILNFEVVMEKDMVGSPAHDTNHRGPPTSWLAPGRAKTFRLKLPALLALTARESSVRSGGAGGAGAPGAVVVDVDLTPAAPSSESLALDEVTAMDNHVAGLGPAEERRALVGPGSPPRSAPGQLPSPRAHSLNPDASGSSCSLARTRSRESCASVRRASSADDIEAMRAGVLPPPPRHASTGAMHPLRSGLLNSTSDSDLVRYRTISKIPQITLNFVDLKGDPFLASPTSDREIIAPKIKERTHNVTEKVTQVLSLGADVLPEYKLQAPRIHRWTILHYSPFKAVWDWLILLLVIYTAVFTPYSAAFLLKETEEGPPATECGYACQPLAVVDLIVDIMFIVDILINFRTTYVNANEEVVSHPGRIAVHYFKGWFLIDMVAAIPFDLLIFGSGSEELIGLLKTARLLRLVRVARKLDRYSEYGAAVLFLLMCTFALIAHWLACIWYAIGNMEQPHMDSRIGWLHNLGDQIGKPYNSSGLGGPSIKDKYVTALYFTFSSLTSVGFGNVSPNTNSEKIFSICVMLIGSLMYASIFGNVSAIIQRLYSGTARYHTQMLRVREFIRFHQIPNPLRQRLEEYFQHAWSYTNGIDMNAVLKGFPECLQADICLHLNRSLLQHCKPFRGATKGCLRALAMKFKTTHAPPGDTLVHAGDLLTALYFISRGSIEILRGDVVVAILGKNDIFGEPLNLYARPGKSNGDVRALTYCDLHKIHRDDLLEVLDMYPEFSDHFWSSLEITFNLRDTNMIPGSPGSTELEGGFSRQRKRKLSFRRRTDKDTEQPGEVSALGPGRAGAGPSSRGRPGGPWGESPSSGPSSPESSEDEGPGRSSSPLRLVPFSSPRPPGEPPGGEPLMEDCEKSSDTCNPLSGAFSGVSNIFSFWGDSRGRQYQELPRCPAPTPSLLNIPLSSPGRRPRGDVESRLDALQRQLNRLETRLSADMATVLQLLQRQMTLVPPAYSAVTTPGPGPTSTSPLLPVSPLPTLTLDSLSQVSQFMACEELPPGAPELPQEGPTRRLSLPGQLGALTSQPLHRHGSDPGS

Structure (SMILES) | hERG current change (%, negative = inhibition) at 10uM
C/[N+]([O-])=C\C1C(=O)CC(C)(C)CC1=O | 16.6%
CCc1noc(C)c1C(=O)N(CCOC)c1c(N)n(CC(C)C)c(=O)[nH]c1=O | 22.7%
O=C1NC(=Nc2cccc(O)c2)S/C1=C\c1cccc([N+](=O)[O-])c1 | 24%
C#CCOCCOCCOCCNc1nc(N2CCOCC2)nc(N2CCN(C(=O)[C@H]([C@@H](C)CC)n3cc([C@@H](N)CC(C)C)nn3)CC2)n1.Cl | 4.85%
CCc1ccccc1NC(=O)CSc1nc2n[nH]c(C)c2c(=N)n1-c1cccc(OC)c1 | -32.9%
O=C(c1cc(S(=O)(=O)N2CCOCC2)ccc1F)N(Cc1nnc(-c2ccccc2Cl)o1)C1CC1 | -22.8%
COc1ccc(S(=O)(=O)N2CCCC2)cc1NC(=O)c1ccccc1 | 13.9%
Cc1cc(C)cc(SCc2noc(C(=O)NC(C)C)c2C(=O)O)c1 | 33.6%
CC(=O)Nc1ccc(N2C(=O)CSC2c2ccccc2[N+](=O)[O-])cc1 (stereo not shown) | 37.4%
COc1cc(C)c(CN2CCN(S(=O)(=O)c3ccc(Cl)s3)CC2)cc1OC | -7.02%
COc1ccccc1CCNC(=O)c1c(C)nn(CC(C)C)c1Cl | -4.9%
C=CCNC(=S)NNC(=O)CCC(O)CCCCC (stereo not shown) | 16.4%
COC(=O)Cc1sc(-c2ccccn2)nc1-c1ccccc1 | -7.81%
O=C(NCCCN1CCN(c2ccc(F)cc2)CC1)c1cccc(N2CCCC2=O)c1 | -48.5%
CCOC(=O)c1c(C)[nH]c(C)c1C(=O)COC(=O)c1cccc(S(=O)(=O)N(CC)CC)c1 | -7.06%
Cc1ccc(F)cc1NCC(=O)Nc1ccc(Cl)cc1F | 8.63%
CCCCCc1ccc(-c2cn(Cc3ccc([N+](=O)[O-])cc3)nn2)cc1 | 9.08%
CCn1cc([N+](=O)[O-])c(C(=O)Nc2c(C)nn(Cc3c(F)c(F)c(F)c(F)c3F)c2C)n1 | -3.44%
Cc1nc(SCC(=O)NC(C)c2ccccc2)c2oc3ccccc3c2n1 (stereo not shown) | -12.1%
CCOC(=O)c1sc(NS(=O)(=O)c2cc(C)ccc2C)nc1C | 10.4%
Cc1ccc(N2C(=O)CC(c3ccsc3)C3=C2CC(C)(C)CC3=O)cc1 (stereo not shown) | 3.75%
CC(C)(C)NC(=O)NC(=O)COC(=O)COc1ccc(Cl)cc1Cl | 10.1%

Structure (SMILES) | hERG current change (%, negative = inhibition) at 10uM
Cc1cccc(NC(=S)/N=C(\N)Nc2nc(C)c3ccc(C)cc3n2)c1 | -5.62%
CCc1c(C)c(C#N)c2nc3ccccc3n2c1NCc1ccccn1 | -27.2%
CCOP(=S)(OCC)C(O)CCCCCn1c(=O)c(F)cn(C2CCCO2)c1=O (stereo not shown) | -2.13%
COc1ccc(C(=O)N(C)c2ccccc2C(=O)NCCc2ccccc2)cc1 | -20.2%
COc1ccc(Nc2cccc(Cl)c2)c(C(=O)O)c1 | 8.66%
COc1ccc(-n2nc3c(c2NC(=O)C2CC2)CS(=O)(=O)C3)cc1 | -6.08%
CCCOc1nnnn1-c1ccccc1 | 23.1%
Cc1cc(NC(=O)CCC(=O)N(Cc2ccccc2)C(C(=O)NC2CCCC2)c2ccc(C)o2)no1 (stereo not shown) | -4.17%
CCN1C(=O)CC(C(=O)OC)=C1C | 27.2%
CC1(C)NC(=O)N(CCOCCOc2ccccc2)C1=O | 5.83%
O=C(Nc1ccncc1)c1sc2ccccc2c1Cl | 12%
CCCCOc1ccc(C(=O)NCC(=O)NCC2CCCO2)cc1 (stereo not shown) | 2.65%
O=C(CSc1ccccn1)Nc1ccc(Cl)c([N+](=O)[O-])c1 | -19.6%
CCn1nc(C)cc1C(=O)N1CCCC(N2CCN(c3cccc(Cl)c3)CC2)C1 (stereo not shown) | -35%
CCCc1nnc(SCC(=O)N2C(C)CCCC2C)n1CC (stereo not shown) | 4.47%
COc1ccc(NC(=O)CSCc2ccc(C#N)cc2)c(OC)c1 | -14.2%
CCOc1ccc(N(C(=O)CNC(=O)c2ccco2)C(C(=O)NC2CCCC2)c2ccco2)cc1 (stereo not shown) | -0.762%
CCC1(c2ccc(F)cc2)NC(=O)N(CC(=O)NCC(=O)Nc2cccc(C)c2C)C1=O (stereo not shown) | -8.55%
CC1(C)CC(N2CCC(=O)NC2=S)CC(C)(C)N1 | 3.04%
O=C(O)c1cc(S(=O)(=O)NC2CCCc3ccccc32)ccc1O (stereo not shown) | 13.5%
COc1ccccc1OCC(=O)O/N=C(\N)c1ccccn1 | 12%
Cc1oc(-c2ccccc2F)nc1CN1CCC(C(=O)NCCC2=CCCCC2)CC1 | -71.8%

Structure (SMILES) | hERG current change (%, negative = inhibition) at 10uM
O=c1[nH]c2ccccc2n1C1CCN(CCCC(c2ccc(F)cc2)c2ccc(F)cc2)CC1 | -77.6%
CCN(CC(=O)Nc1c(F)cccc1F)C(=O)COc1ccc2c(C)cc(=O)oc2c1 | 6.35%
COc1ccc(NC(=S)NCCCN2CCOCC2)cc1 | 1.22%
COc1cc2nc(N3CCN(C(=O)C4COc5ccccc5O4)CC3)nc(N)c2cc1OC.CS(=O)(=O)O (stereo not shown) | -38.9%
Cc1ccc(S(=O)(=O)NCC2CCC(C(=O)NCCCOC(C)C)CC2)cc1 (stereo not shown) | -17.2%
O=C(Cc1ccccc1Cl)N/N=C/c1cccnc1 | -0.536%
Cn1ncc(Br)c1C(=O)Nc1ccc(Cl)cn1 | 5.27%
CC(C)(C)NC(=O)CCN(/N=C/c1ccncc1)C1=NS(=O)(=O)c2ccccc21 | -19.1%
COc1ccc(NC(=O)CCNC(=O)Cn2cnc3sc4c(c3c2=O)CCCC4)cc1OC | 11.5%
Cc1ccc(-c2cc(C(=O)N/N=C/C=C/c3ccccc3)n[nH]2)s1 | -1.52%
C=CCNC(=O)CSc1nnc(-c2ccccc2Cl)n1-c1c(C)n(C)n(-c2ccccc2)c1=O | -5.62%
COc1ccc(N2CCN(C(=O)CNC(=O)c3cn(-c4ccccc4OC)c(=O)c4ccccc34)CC2)cc1 | -43.9%
COc1cc(CN2CCCC(CO)(Cc3cccc(Cl)c3)C2)cc2c1OCO2 (stereo not shown) | -68.1%
C=COc1ccc(N2C(=O)c3ccccc3OC2C)cc1 (stereo not shown) | 0.982%
OC(COc1ccc(CNCCc2ccc(C(F)(F)F)cc2)cc1)CN1CCCCC1 (stereo not shown) | 14.3%
COCCNC(=O)CSc1ccccc1C(=O)O | 19.8%
C[N+]1(C)CCCC(OC(=O)C(O)(c2ccccc2)c2ccccc2)C1.[Br-] (stereo not shown) | -1.3%
NC(=O)C1=C[C@@H](c2coc3ccccc3c2=O)C[C@@H](OCc2ccc(CO)cc2)O1 | -31%
C/C(=N\Nc1ccccc1)c1c(O)[nH]c(=O)[nH]c1=O | 10.7%
CN1C(=O)C(C(=O)Nc2ccccc2F)c2ccccc21 (stereo not shown) | -1.32%
COc1cc(NC(=O)c2cccs2)ccc1NC(=O)Cc1ccccc1 | -7.06%
CCCCc1cc(=O)oc2cc(C)cc(OCC(=O)NCC3CCC(C(=O)O)CC3)c12 (stereo not shown) | -1.21%

Structure (SMILES) | hERG current change (%, negative = inhibition) at 10uM
O=C(COC(=O)c1ccc(O)cc1O)NC1CCS(=O)(=O)C1 (stereo not shown) | 12.9%
COc1ccc(/C=N\NC(=O)c2ccc(-c3ccccc3)cc2)cc1COC(C)=O | -0.748%
CCOc1cc(S(=O)(=O)N2CCC(Cc3ccccc3)CC2)c(OCC)cc1-n1cnnn1 | 11.3%
CC(C)CCN1CCN(Cc2ccc(C#CCCO)cc2)CC1CCO (stereo not shown) | -6.37%
COc1nc(C)nc2c1sc1nc3c(cc12)COC(C)(C)C3 | 12.5%
O=C(OCC(=O)N1CCN(c2ccccc2)CC1)c1ncc(Cl)c(Cl)c1Cl | -3.66%
Cc1ccccc1N1C(=O)CC1(C#N)c1ccc(OCc2ccccc2)cc1 (stereo not shown) | 17.6%
O=C(Nc1cccc(Cl)c1)Nc1ccnc(-c2cccnc2)n1 | -3.2%
O=C(c1ccc(F)cc1)N(NC(=O)C(O)(c1ccccc1)c1ccccc1)c1ccccc1 | -6.98%
Cc1ccc(-c2csc(N3CCN(c4ccc5nc(-c6ccncc6)n(CCN6CCCCC6)c5c4)CC3)n2)cc1 | 23.2%
Cc1cc2nc(CSc3ccccc3)cc(=O)n2[nH]1 | 11.6%
CC1CCN(Cc2c(O)ccc3c(=O)c(-c4nc5ccccc5s4)c(N)oc23)CC1 | -48.5%
CCc1cc2c(C)ccc(C)c2nc1SCC(=O)Nc1c(C)[nH]c(=O)[nH]c1=O | 2.43%
COc1ccccc1CN1CCCC(N2CCN(c3ccc(F)cc3)CC2)C1 (stereo not shown) | -56.2%
Cc1cccc2cc(CN(Cc3ccc4c(c3)OCO4)Cc3nnnn3C3CCCC3)c(=O)[nH]c12 | -20.9%
Cc1cc(C(=O)N/N=C2\CC(=O)c3ccccc32)c(C)n1-c1ccccc1 | 17.3%
CC(=O)Nc1ccc(N/C=C/C(=O)c2ccco2)cc1 | 1.94%
CC(C)(C)n1ncc2c(=O)n(Cc3ccc(Cl)c(Cl)c3)cnc21 | 0.627%
CC(=O)c1sc(NC(=O)COc2ccc(C)c(C)c2)nc1C | 13.6%
